Consider 43 compounds from ChEMBL document CHEMBL4888484, “Replenishing the malaria drug discovery pipeline: Screening and hit evaluation of the MMV Hit Generation Library 1 (HGL1) against asexual blood stage Plasmodium falciparum ,using a nano luciferase reporter read-out” (2022).

Screen size: about 150,000 compounds; about 540 (0.36%) showed an effect of 50% or more. Some of the results follow.

For this experiment, the system named is Plasmodium falciparum. The experiment can be described thus: Primary screen in NF54 nanoGlo assay, in single point, at 2uM, 72h; a lower Z score goes with more inhibition. Particulars: timepoint 72 hour. In kind it is functional, Erythrocyte.
For orientation: % Inhibition means the drop in the measured response relative to a control, in per cent. As for `COc1cc(=O)n2c(c1C(=O)NCc1cccc(F)c1)CCNCC2`, the “% Inhibition” value was found to be 4% and the Z score is -0.58.

With `COc1ncc(Br)cc1CNC(=O)N[C@H]1COC[C@H]1n1ccnn1`, the “% Inhibition” value is reported as -1% and the Z score worked out at 0.1.

With `CCc1nnc(NC(=O)NC2CC(C)(C)NC(C)(C)C2)s1`, the “% Inhibition” value is -41% and the Z score is given as 4.82.

As to `CC(=O)c1cccc(NC(=O)Cn2nc3ccc(C(=O)NCc4ccccc4)cn3c2=O)c1`, the “% Inhibition” value was -15% and the Z score amounted to 1.34.

On to `Cc1c([C@@H]2CCCN2c2ccnc3ccccc23)cnn1C`, for which the “% Inhibition” value was -1% and the Z score stood at 0.17.

As to `CC1(C)OC2C(COS(C)(=O)=O)OC(n3cnc4c(O)ncnc43)C2O1` (stereo unspecified), the “% Inhibition” value was 3% and the Z score is given as -0.46.

On to `COc1cc(C)nc(CN[C@@H](C)c2cccc(-n3cccn3)c2)c1`, for which the “% Inhibition” value was 7% and the Z score is -1.33.

For `Cc1noc(C)c1CN1C(=O)C(=O)N([C@@H](C)c2ccccc2)C1=O`, the “% Inhibition” value was -1% and the Z score came out at 0.12.

Regarding `Cc1cn(CCNc2cc([C@H]3CCOC3)nc(C)n2)nn1`, the “% Inhibition” value was -2% and the Z score was found to be 0.25.

Consider `CN(C(=O)c1ccco1)[C@@H](Cc1ccc(F)cc1F)C1CCN(Cc2cc(F)ccc2F)CC1`, for which the “% Inhibition” value is listed as -1% and the Z score is listed as 0.17.

For `CCOc1ccc(CN2CCOC[C@@H](CO)C2)cc1Cl`, the “% Inhibition” value was 1% and the Z score is given as -0.12.

With `Cc1nn(C)cc1-c1nn(-c2ccc(F)cc2)c(-c2cn(C)nc2C)c1C`, the “% Inhibition” value turned out to be 29% and the Z score is given as -3.32.

For the compound `C[C@H]1CCc2nn3ccn(CC(=O)Nc4cccc(F)c4)c(=O)c3c2C1`, the “% Inhibition” value is reported as -7% and the Z score is 0.65.

As to `Cc1ccccc1OCC(=O)NC[C@](O)(c1ccoc1)c1ccco1`, the “% Inhibition” value is on record as -8% and the Z score is on record as 1.35.

For the compound `CCOCC(=O)Nc1ccc2c(c1)OC1(CCCCC1)O2`, the “% Inhibition” value is on record as -10% and the Z score stood at 1.04.

For the compound `COc1cccn2ncc(C(=O)N3C[C@@H](O)CC(F)(F)C3)c12`, the “% Inhibition” value came to 3% and the Z score is listed as -0.57.

Consider `CN(C)c1ccc(C(=O)N2CCOC3CCCCC32)cn1` (stereo unspecified), for which the “% Inhibition” value is given as 6% and the Z score is reported as -0.96.

On to `CCc1ccc(C2CCCCN2c2nc(C(C)OC)ns2)o1` (stereo unspecified), for which the “% Inhibition” value was -10% and the Z score is given as 1.5.

On to `O=S(=O)(c1cccc(Cl)c1)N1CN(Cc2ccc3c(c2)OCO3)c2nc3ccccc3nc21`, for which the “% Inhibition” value is recorded as 28% and the Z score is given as -3.17.

In the case of `CC[C@H](NC(=O)CCCN1CCCC1)c1cccc(C)n1`, the “% Inhibition” value was -9% and the Z score turned out to be 1.

Take `CN1CCN(CCC(=O)NC[C@]2(c3ccccc3)CC2(C)C)CC1`: the “% Inhibition” value is given as 1% and the Z score is listed as -0.2.

For `CS(=O)(=O)c1ccc(C(=O)Nc2nccc3sccc23)cc1`, the “% Inhibition” value was -2% and the Z score is listed as 0.42.

As for `O=C(CN1CC[C@H](O)C1)N1c2ccccc2CCc2ccccc21`, the “% Inhibition” value is recorded as -7% and the Z score is 0.73.

Turning to `CCc1oc(C(=O)O)cc1CN1CCOC[C@@H]1CC1CCOCC1`, the “% Inhibition” value was -14% and the Z score is on record as 1.37.

With `O=C(C1CCCC1)N1CCN(Cc2ccccc2)CC1`, the “% Inhibition” value is -8% and the Z score is 1.49.

Regarding `CC(C)[C@@H]1CN(c2ncccc2C(N)=O)CCCN1CC1CC1`, the “% Inhibition” value is recorded as -4% and the Z score stood at 0.95.

For the compound `CCc1nc([C@H]2CN(C(=O)COc3ccc(Cl)cc3)CC23CCCC3)no1`, the “% Inhibition” value is -17% and the Z score worked out at 2.18.

Regarding `O=C(Nc1ncc(Cc2ccc(F)cc2F)s1)[C@H]1CCOC1`, the “% Inhibition” value is -6% and the Z score was 0.97.

Take `Cc1cc(N[C@]2(c3ccccc3)OC(=O)c3ccccc32)no1`: the “% Inhibition” value was -12% and the Z score was 1.38.

Consider `O=S(=O)(Cl)c1ccc2oncc2c1`, for which the “% Inhibition” value is reported as -1% and the Z score is listed as 0.17.

For the compound `O=C(CNC(=O)C1CCCCC1)Nc1nc2ccccc2s1`, the “% Inhibition” value was -5% and the Z score is on record as 0.42.

In the case of `Cc1ccc(-c2cc(C(=O)N3C[C@H](O)CO3)[nH]n2)s1`, the “% Inhibition” value is reported as -6% and the Z score is given as 1.09.

On to `Cc1ccc([C@H](C)NC(=O)CCC2CCNCC2)cc1F`, for which the “% Inhibition” value is listed as -15% and the Z score is 2.47.

Regarding `CCCc1noc(CCc2scnc2C)n1`, the “% Inhibition” value was -12% and the Z score worked out at 1.19.

Regarding `CCc1nnc(CN2CCCN(c3cccc(Cl)c3C)CC2)o1`, the “% Inhibition” value worked out at 4% and the Z score is reported as -0.6.

Take `COc1ccc(CNC(=O)c2c(C)noc2-c2ccco2)cc1`: the “% Inhibition” value is given as -4% and the Z score was found to be 0.53.

Regarding `CN(C(=O)CC1CCCc2ccccc21)C1CCCC1S(C)(=O)=O` (stereo unspecified), the “% Inhibition” value is on record as -9% and the Z score came out at 1.25.

For `O=C(NC1(CC2CC2)CCN(S(=O)(=O)Cc2ccccc2)CC1)c1ccccc1`, the “% Inhibition” value was -7% and the Z score was found to be 1.35.

Turning to `Cc1ccc2c(C(=O)N[C@@H](C)Cc3ccncc3)cc(C)nc2c1`, the “% Inhibition” value is reported as -4% and the Z score was found to be 0.72.

In the case of `CC(C)(C)C(=O)N1CCN(S(=O)(=O)c2cccc3nonc23)CC1`, the “% Inhibition” value was -6% and the Z score is 0.73.

For `COc1cc(OC)cc(-c2nc(-c3cn(-c4cccc(Cl)c4)nn3)no2)c1`, the “% Inhibition” value is on record as -10% and the Z score is reported as 2.02.

For the compound `COc1ccccc1N1CCN(/C(=N\c2ccccc2)NC(=O)c2ccc(Br)cc2)CC1`, the “% Inhibition” value is on record as -1% and the Z score was found to be 0.11.

In the case of `COCCNC1=Nc2ccccc2N[C@]12CCCN(C(=O)c1ccc(C#N)cc1)C2`, the “% Inhibition” value was determined as 24% and the Z score is reported as -2.77.
